Assay results: PubChem BioAssay AID652104 (National Center for Advancing Translational Sciences (NCATS), 2013)
Screen size: about 410,000 compounds; about 7,200 (1.8%) were called active. Inconclusive results, whose numbers are uncertain, are shown with a selection of clear calls. Calls follow the shape of the dose curve; as a rule, active = well fitted activation curve with a large enough effect; inconclusive = small, poorly fitted or top-dose-only effect, or another doubt; inactive = no such curve, though single readings can be large or run the other way. No potency is given beside an inconclusive call; the fits are too rough.

experiment: qHTS of TDP-43 Inhibitors; settings: TDP-43 expressing yeast growth rescue, BacTiter-Glo, 24 h; growth rescue (activation): at 46.1 µM (top of the series) unless noted; also: nearly all actives have a fitted effect of over 50% in size; as to growth rescue (activation): % of control where 0% means no effect
Excerpt: The goal of this project is to identify new chemical probes capable of reversing the toxicity associated with TDP-43 which is associated with frontotemporal lobar degeneration and amyotrophic lateral sclerosis. These compounds will provide a complementary approach to deciphering the tangled mechanisms of toxicity and protection that we have uncovered through genome-wide genetic screens and are beginning to uncover in a large-scale proteomics analysis with mass spectroscopy.
To this end, a miniaturized assay was developed to be screened against the Molecular Libraries Small Molecule Repository (MLSMR) to discover TDP-43 inhibitors. Please note that in the set-up this yeast-based assay compounds that inhibit as TDP-43, have a read-out as activators.
NIH Chemical Genomics Center [NCGC]
NIH Molecular Libraries Probe Centers Network [MLPCN]
Assay Submitter (PI): Susan Lindquist, Whitehead Institute/MIT
Dispense 2.5 microL yeast galactose medium per 1536-well plate, pin compound, dispense 2.5 microL TDP-43 expressing yeast in galactose medium at OD600=0.02 (pregrown in raffinose medium to mid-log phase) per well, incubate for 24 hr at 30 deg C, and cell growth will be measured using 5 microL of Bactiter/Glo reagent to entire plate and read using Luminescence Protocol in ViewLux.
Potency is read from the fitted curve at half-maximal effect; tags tell the direction and shape of the fitted curve.

SMILES	growth rescue (activation)	Potency
c1ccc(-c2nnnc3ccccc23)cc1	inactive: 18%	
Cc1sc2nc3c4ccccc4c(NCc4ccco4)nn3c(=O)c2c1C	inactive: 0%	
COc1cc(-c2c(CCO)sc3ccccc23)cc(OC)c1OC		inconclusive [activator, partial curve, poor fit]
COc1ccc(-c2nnc3sc(COc4ccccc4)nn23)cc1		active: 2.82 µM
CCOc1cccc(C(=O)NC(=S)Nc2ccc3c(c2)OCCO3)c1		inconclusive [activator, partial curve]
C=CCn1c(C)nc2c(cnn2-c2ccccc2)c1=O		inconclusive [activator, single point]
CC(C)c1ccc(NC(=O)C2CCCN(S(=O)(=O)c3ccc4[nH]c(=O)ccc4c3)C2)cc1 (stereo not drawn)	inactive: 25.4%	
N#CCc1nc(CSc2nc3ccccc3s2)cs1		inconclusive [activator, partial curve]
CCOC(=O)c1ccc2c(c1)N(CC(=O)Nc1ccc(CC)cc1)C(=O)c1ccccc1S2		inconclusive [activator, partial curve]
O=C(NCCc1cccc(Cl)c1)c1ccc2c(c1)OCO2		inconclusive [activator, partial curve]
Cc1ccc(S(=O)(=O)N2C[C@@]3(O)Cn4c(=O)ccc(=O)n4C[C@@]3(OC(=O)NCC3CCCCC3)C2)cc1	inactive: -30.7%	
FC(F)(F)c1nnc2c(Sc3ccccn3)nc3ccccc3n12		active: 15.8 µM
COc1ccc(C(=O)O/N=C(\N)c2cccc(C)c2)cc1OC		active: 22.4 µM
CC(C)Oc1cccc(C(=O)Nc2ccc(N3CCN(S(C)(=O)=O)CC3)cc2)c1		inconclusive [activator, partial curve]
COc1cc([N+](=O)[O-])ccc1NC(=O)CCCOc1cccc(C)c1		inconclusive [activator, partial curve]
CC(NC(=O)NC(=O)c1ccc(Cl)cc1Cl)C1CC1 (stereo not drawn)		inconclusive [activator, single point]
O=C(c1ccco1)N1CCN(C(=O)c2snc3ccc(Cl)cc23)CC1		inconclusive [activator, single point]
CCOC(=O)c1c(NC(=O)C(C)N2CCN(C(=O)c3ccco3)CC2)sc2c1CCCC2 (stereo not drawn)		inconclusive [activator, single point]
COc1ccc(-n2cc(-c3ccccc3)c3c(NCCc4ccc(OC)c(OC)c4)ncnc32)cc1		inconclusive [activator, single point]
CC(=O)Nc1cccc(OCC(=O)Nc2ccc(F)cc2)c1	inactive: 11.9%	
O=[N+]([O-])c1cc(-n2cccc2)ccc1N1CCOCC1		inconclusive [activator, partial curve]
Cc1ccc(C)c(NC(=O)c2cc3ccccn3n2)c1		inconclusive [activator, partial curve]

SMILES	growth rescue (activation)	Potency
Cc1cccc(NC(=O)c2ccc([N+](=O)[O-])cc2Cl)n1		inconclusive [activator, partial curve, poor fit]
COc1ccc(S(=O)(=O)N2CCCCCC2)cc1C(=O)NCCc1ccccc1		inconclusive [activator, single point]
Cc1sc2nc(-c3ccccn3)[nH]c(=O)c2c1-c1ccccc1		active: 17.8 µM
Cc1ccccc1-c1ccccc1CN1[C@@H](C(C)C)COCCS1(=O)=O		inconclusive [activator, single point]
Cn1ccc2c(N(c3ccccc3)C3CCCCC3)cc3c(c21)C1CCC3O1 (stereo not drawn)		inconclusive [activator, full curve, poor fit]
Cc1cccc(N2CCN(c3ncnc4onc(C)c34)CC2C)c1 (stereo not drawn)		inconclusive [activator, partial curve]
Cc1ccc(-c2nc3ncccc3o2)cc1NC(=O)c1ccc(-c2cccc(Cl)c2C)o1	inactive: 6.84%	
Cc1nc(-c2cccc(F)c2)sc1CCNC(=O)C(=O)Nc1ccc2c(c1)OCO2	inactive: 8.09%	
O=C(N=Nc1c(O)n(Cc2ccccc2)c2ccccc12)c1ccc(O)cc1		inconclusive [activator, full curve, poor fit]
O=C(Nc1ccccc1F)c1ccc(CSc2ccccc2)o1		active: 12.6 µM
Cn1c(=O)c(S(=O)C2CCCCC2)c(O)c2ccccc21 (stereo not drawn)		inconclusive [activator, single point]
O=C(N/N=C/c1ccc[nH]1)c1sc2ccccc2c1Cl		inconclusive [activator, single point]
CCOc1ccc(NC(=O)c2c(NC(=O)c3ccccc3Br)sc3c2CCC(C)C3)cc1 (stereo not drawn)		inconclusive [activator, partial curve, poor fit]
CCN(CC)CCOC(=O)c1ccc([N+](=O)[O-])cc1	inactive: -0.24%	
Cc1nc2ccc([N+](=O)[O-])cc2c(=O)n1Cc1ccc(Cl)cc1		inconclusive [activator, partial curve]
Cc1ccc2c(=O)cc(CSCC(=O)Nc3nnc(C)s3)[nH]c2c1	inactive: -18.8%	
COc1ccc(OC)c(NC(=O)CSc2nc3ccccc3nc2N2CCCCC2)c1		inconclusive [activator, full curve, poor fit]
COc1ccc(-c2ccc(C#N)c(SCC(=O)Nc3sc4c(c3C#N)CCC4)n2)cc1OC		inconclusive [activator, single point]
Cc1cc(O)c2c(c1O)C(=O)[C@]13C(=C2O)C(=O)[C@@H]2[C@@H](O)[C@H]1[C@@H]1[C@H](O)[C@H]3C(=O)C3=C(O)c4c(O)cc(C)c(O)c4C(=O)[C@]312	inconclusive: -83.3% [activator]	
Cc1ccc(-c2ccc(CCC(=O)O)o2)cc1		inconclusive [activator, single point]
CCCCOc1cccc(NC(=O)CSc2nnc(C)s2)c1		inconclusive [activator, single point]
